GI50 data for one molecule are collected here from PubChem BioAssay (NCI).

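Cells were grown in 96-well plates and exposed to each compound for 48 hours at five concentrations; endpoints were interpolated linearly between bracketing concentrations, or set to the highest concentration if not reached. GI50 is the concentration that inhibits growth by half.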 A number of entries come with more than one value. They are shown here; other results are not. An entry can have further records. Records of one sample usually come from different ranges of test concentrations, not given here; a value can be the end of its range.

The assay relates to MDA-MB-468 breast. Put plainly: NCI tumour cell line growth inhibition, 48 h.

In the case of `CC[C@H](C)[C@H](NC(=O)[C@H]1CCCCN1C)C(=O)N(C)[C@H](C[C@@H](OC(C)=O)c1nc(C(=O)N[C@@H](Cc2ccccc2)C[C@H](C)C(=O)OC)cs1)C(C)C`, the GI50 is 0.238 nM and 2.5 nM.
